According to article PMC4336329 (PLoS ONE, 2015):
The campaign covered roughly 310,000 compounds. About 14,000 (4.5%) showed an effect of 50% or more. Effects have a minus sign here. The list shows a part of the results.

target: human ether-à-go-go-related gene (hERG) potassium channel (human, UniProt Q12809); experiment: primary screen, population patch clamp on CHO cells stably expressing hERG
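Also: peak tail current of the secondary pulse compared with the same well before compound.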

Chain of human ether-à-go-go-related gene (hERG) potassium channel (Q12809 whole entry, looked up): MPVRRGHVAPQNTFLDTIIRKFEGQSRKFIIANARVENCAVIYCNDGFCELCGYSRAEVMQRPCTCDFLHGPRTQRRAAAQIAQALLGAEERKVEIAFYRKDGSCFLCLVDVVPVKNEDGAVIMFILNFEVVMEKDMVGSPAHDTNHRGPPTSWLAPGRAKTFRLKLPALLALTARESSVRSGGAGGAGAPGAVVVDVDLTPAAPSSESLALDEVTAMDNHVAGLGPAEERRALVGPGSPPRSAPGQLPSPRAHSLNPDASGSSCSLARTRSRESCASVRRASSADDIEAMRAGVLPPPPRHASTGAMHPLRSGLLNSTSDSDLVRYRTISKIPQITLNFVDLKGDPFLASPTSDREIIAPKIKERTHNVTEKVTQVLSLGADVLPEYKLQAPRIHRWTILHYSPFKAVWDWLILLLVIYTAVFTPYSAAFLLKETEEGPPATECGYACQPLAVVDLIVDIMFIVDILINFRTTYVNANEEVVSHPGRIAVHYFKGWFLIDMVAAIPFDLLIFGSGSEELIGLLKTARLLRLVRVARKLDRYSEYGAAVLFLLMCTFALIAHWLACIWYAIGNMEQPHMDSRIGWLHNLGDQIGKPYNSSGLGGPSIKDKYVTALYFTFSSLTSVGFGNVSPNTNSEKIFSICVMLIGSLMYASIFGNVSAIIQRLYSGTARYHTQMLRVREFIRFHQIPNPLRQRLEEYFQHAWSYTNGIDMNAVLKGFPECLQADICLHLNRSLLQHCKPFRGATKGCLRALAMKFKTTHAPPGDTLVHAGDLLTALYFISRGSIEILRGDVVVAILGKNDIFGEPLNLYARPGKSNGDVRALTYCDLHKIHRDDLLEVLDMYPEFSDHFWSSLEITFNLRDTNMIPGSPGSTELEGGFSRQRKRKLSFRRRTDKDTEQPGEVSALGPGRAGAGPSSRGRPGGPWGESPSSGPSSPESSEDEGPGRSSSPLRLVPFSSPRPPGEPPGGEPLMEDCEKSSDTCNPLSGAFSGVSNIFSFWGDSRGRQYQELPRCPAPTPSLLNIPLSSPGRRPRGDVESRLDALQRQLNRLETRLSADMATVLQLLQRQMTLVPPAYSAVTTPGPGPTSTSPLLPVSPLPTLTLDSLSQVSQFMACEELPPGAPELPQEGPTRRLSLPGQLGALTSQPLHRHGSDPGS

Structure (SMILES) | hERG current change (%, negative = inhibition) at 10uM
CC(C)(C)C(Cn1ccnc1)NC(=O)c1ccc2nc(C3CC3)oc2c1 (centres unmarked) | -6.71%
Cc1cc(=O)n2c3c(sc2n1)C(=O)N(Cc1ccccc1)C3=O | -0.36%
NC(=O)C1=CN(Cc2ccc(Cl)cc2)CCC1C(F)(F)F (centres unmarked) | 6.5%
CC(=O)N1CCc2cc(S(=O)(=O)NC(CC(C)C)C(=O)N3CCn4c3nc3ccccc34)ccc21 (centres unmarked) | -60%
Cc1cc(NC(=O)c2ccccc2F)on1 | 7.01%
Br.COc1ccccc1C1=Nn2c(COc3ccccc3)nnc2SC1 | -14%
CCCNC(=O)c1ccc(N2CCC3(CC2)CC(c2cccc(Br)c2)=NO3)c(NC(=O)c2ccc(Br)cc2)c1 | 6.46%
CSc1nc(-c2ccco2)cc(-c2ccccc2)c1C#N | 3.95%
Cc1ccc(S(=O)(=O)CCC(=O)OCC(=O)NC(N)=O)cc1 | 7.58%
COc1ccc(CC(=O)N[C@@H](CCSC)C(=O)N2CCC3(CC2)NCCc2[nH]cnc23)cc1 | 5.32%
COc1ccc(C(=O)N2CCC(n3nccc3NC(=O)C3CC3)CC2)cc1F | -26.8%
O=C(CSC1=NS(=O)(=O)c2cc(F)ccc2N1)Nc1ccccc1F | 13.5%
CCCCN(CCCNC(=O)C1CCCN(S(=O)(=O)CC)C1)Cc1ccccc1 (centres unmarked) | -31.5%
O=C(Nc1ccc(S(=O)(=O)Nc2ncccn2)cc1)C1CC(=O)N(c2ccc(Cl)cc2)C1 (centres unmarked) | 1.56%
CCC(C)c1ccccc1N1CC(C(=O)N(C)CC(=O)Nc2cccc(F)c2)CC1=O (centres unmarked) | 1.98%
Cc1ccc(NC(=O)CCN2CCN(C/C=C/c3ccccc3)CC2)cc1.Cl | -90.9%
CC(=O)c1cccc(CN2CCC(CO)(CCCc3ccccc3)CC2)c1 | -63.9%
CCCn1c(-c2cccc(F)c2)nc2c1c(=O)[nH]c(=O)n2Cc1ccccc1 | 17.5%
CCN(CC)CCNC(=O)c1ccc(Cl)c(S(=O)(=O)Nc2ccc(Cl)cc2)c1 | -37.7%
CC1=C(C(=O)OC2CCCCC2)C(c2cccnc2)n2nnnc2N1 (centres unmarked) | -1.43%
COc1ccc(C(=O)/C=C/NCc2ccc(F)cc2)cc1OC | -65%
COc1ccc(OC)c(N(CC(=O)N2CCCC2)S(=O)(=O)c2ccc(OC)c(OC)c2)c1 | 4.84%

Structure (SMILES) | hERG current change (%, negative = inhibition) at 10uM
NC(=O)c1ccccc1OCc1nc2ccccc2s1 | 1.07%
Cc1ccccc1N1CCN(CCC(=O)Nc2ccc(F)cc2)CC1 | -67.5%
CCCCN(C(=O)c1ccc(OC)c([N+](=O)[O-])c1)c1c(N)n(CCC)c(=O)[nH]c1=O | 15.4%
O=C1c2ccccc2C(=O)N1CCN1CCCCC1 | -6.2%
COc1cccc(-c2cc(C(=O)Nc3cc(OC)c(OC)c(OC)c3)no2)c1 | -27.1%
CCOC(=O)N1CCN(CC(c2ccccc2)c2ccccc2)CC1 | -13%
NC(=O)c1nsc(C(=O)N(Cc2ccccc2F)C(C(=O)NCC2CCCO2)c2ccc(F)cc2)c1N (centres unmarked) | -2.45%
O=C(CSc1nn(-c2ccc(F)cc2)c(=S)s1)NC1CCS(=O)(=O)C1 (centres unmarked) | -11.3%
CC(C)CCn1c(CN2CC(C)OC(C)C2)nc2c1c(=O)n(C)c(=O)n2C (centres unmarked) | 11.7%
Cc1ccc(S(=O)(=O)N2CC(C(=O)O)=CC[C@H]2c2ccc3c(c2)OCO3)cc1 | 0.234%
COc1ccc(-c2nnc(Nc3ccc(OC)c(C(=O)N4CCCCC4)c3)c3ccccc23)cc1 | -39.3%
Cc1cc(Nc2nc3ccccc3nc2Cl)n(-c2ccc([N+](=O)[O-])cc2)n1 | -6.73%
C=CCNc1nc2ccccc2nc1NS(=O)(=O)c1cccs1 | -2.96%
CCOc1ccc(-n2cnc3scc(-c4ccc(OC)c(OC)c4)c3c2=O)cc1 | -4.54%
O=C1CSC2=NCN(c3ccc4c(c3)OCO4)CN12 | -18.2%
COc1cc2c(cc1OC)C(C(=O)N1CCCC1)C(c1ccccc1F)N(C)C2=O (centres unmarked) | 15.4%
CN(CC(=O)Nc1cccc2c1CCCC2)S(=O)(=O)c1ccccc1 | 1.63%
CCCc1cnc(N2CCN(C(=O)c3ccc(OC)cc3)CC2)nc1 | -52.4%
CCNCc1cc([N+](=O)[O-])ccc1OCC.Cl | -1.39%
COc1ccc(N(CC(=O)NCCSCc2ccco2)S(=O)(=O)c2ccc(C)cc2)cc1 | -17.9%
CCCCNC(=O)Cn1cnc2sc(C(=O)OCC)c(C)c2c1=O | 3.05%
NC1=NC[C@@H](Cc2ccc(O)cc2)N1CCc1cccc2ccccc12 | 9.21%

Structure (SMILES) | hERG current change (%, negative = inhibition) at 10uM
COc1ccccc1CNC(=O)Cc1csc(NC(=O)Nc2ccccc2OC)n1 | -4.45%
CC(=O)N1CCCc2cc(S(=O)(=O)N3CCCC(C(=O)Nc4cccc(F)c4)C3)ccc21 (centres unmarked) | -12.7%
COC(=O)c1ccc(C2NC(=O)c3c(sc(C)c3C)N2)cc1 (centres unmarked) | 10.7%
Cn1c(=O)c2c(SCC(=O)N3CCCc4ccccc43)nc(CC(C)(C)C)nc2n(C)c1=O | -7.29%
O=C(NC1CC1)c1c(O)c2ccccc2[nH]c1=O | 14.2%
CCOc1ccccc1NC(=O)NC1CCN(CC(=O)Nc2ccc3c(c2)OCCO3)CC1 | -28%
CSCCC(NC(=O)c1ccccc1Cl)C(=O)NCCOc1ccccc1 (centres unmarked) | -0.961%
CCOc1ccc(NC(=O)/C(C=Nc2ccccc2)=C(\C)O)cc1 | 5.6%
COc1ccc(N2C(=O)[C@H]3[C@@H](C2=O)C2c4ccccc4C=NN2[C@H]3C(=O)C(C)(C)C)cc1 (some centres unmarked) | 11.2%
Cc1nc2ccccc2n1CC(=O)c1ccccc1 | -0.44%
COc1cc(NC(=O)C(C)Oc2ccccc2)cc(OC)c1 (centres unmarked) | -2.9%
CCCCC(=O)NC(Nc1sc2c(c1C(N)=O)CCCC2)(C(=O)OCC)C(F)(F)F (centres unmarked) | 2.28%
O=C(C(=O)N1CCN(Cc2ccccc2)CC1)c1c[nH]c2ccccc12 | 0.38%
Cc1ccc(CCc2nnc(SCC(=O)Nc3cccc(Cl)c3)n2-c2ccccc2)o1 | -40.5%
COC(=O)c1ccccc1S(=O)(=O)N1CCC(NC(=O)c2ccccc2)CC1 | 3.04%
Cn1c(Cc2ccc(Cl)cc2)nnc1SCC(=O)NC1CC1 | -6.99%
CCC(=O)N1c2ccc(S(=O)(=O)NCc3ccccc3)cc2CC1C (centres unmarked) | 13%
COc1ccc(C=O)c(OC)c1 | 13.9%
CCCCCn1c(=O)c(-c2nc3ccccc3[nH]2)c(O)c2ccccc21 | 21.3%
COc1cc2c(cc1OC)C(C)N(C(=O)Nc1ccccc1)CC2 (centres unmarked) | 12%
Cc1cc(Cl)ccc1OCCCC(=O)N1CCN(S(=O)(=O)c2ccccc2)CC1 | -13.9%
Cc1ccc(Nc2nnc(C3C(=O)N(C)C4(C)CC3c3cc(Br)ccc3O4)s2)cc1 (centres unmarked) | 12.9%

Structure (SMILES) | hERG current change (%, negative = inhibition) at 10uM
NC1=NC[C@@H](Cc2ccc(O)cc2)N1CCc1cccc(F)c1 | 5.43%
O=C(CCS(=O)(=O)c1cccc2nsnc12)N1CC(=O)N(CCc2ccccc2)C(=O)C1 | -15.7%
Cc1ccc(S(=O)(=O)CNC(=S)c2cccc(Cl)c2)cc1 | 12.7%
CCOC(=O)C1CCN(Cc2nnc(-c3cccc(Br)c3)o2)CC1 | -10.9%
COc1cccc(C(=O)CSc2nnc(-c3cc(OC)c(OC)c(OC)c3)o2)c1 | 9.51%
O=C(NNc1nccc(C(F)(F)F)n1)Nc1cccc(Cl)c1 | 3.11%
O=C(NC(=S)Nc1ccc(S(=O)(=O)Nc2ncccn2)cc1)c1ccc(Br)cc1 | 23.6%
CCCCC(C(=O)NC1CCCC1)N(Cc1ccccc1)C(=O)c1snc(C(N)=O)c1N (centres unmarked) | -40.3%
COCCSc1ccccc1C(=O)N1CCC(Cc2ccccc2)CC1 | -24.7%
O=[N+]([O-])c1ccc(C=Nc2cccc3ccccc23)s1 | -2.12%
CCCn1cc(SCC(N)=O)c2ccccc21 | 7.28%
CCC(C)[C@H](NC(=O)NC1CCCc2ccccc21)C(=O)O (some centres unmarked) | 20.6%
CCSc1nc2ccccc2n1C(=O)/C=C\c1ccc(OC)c(OC)c1 | 1.4%
FC(F)(F)c1nnc2ccc(N3CCN(c4ccccc4)CC3)nn12 | 2.75%
CC(C)=CC(=O)OCC(=O)Nc1cccc([N+](=O)[O-])c1 | -4.15%
COCCn1c(N)c(N(Cc2ccccc2)C(=O)COc2ccccc2F)c(=O)[nH]c1=O | 13.4%
Cc1ccc(OCC(=O)N(C)CC(=O)Nc2ccccc2Cl)c([N+](=O)[O-])n1 | -16.7%
CN(C)/C=N/c1nc(-c2ccc3c(c2)OCO3)cs1 | 3.54%
CCOC(=O)CNC(=O)CCc1nnc2ccc(N3CCC(C)CC3)nn12 | 3.67%
Cc1cc(C)c(NS(=O)(=O)c2c(C(=O)N3CCOCC3)c(C)n(C)c2C)c(C)c1 | 4.57%
